In the RNAGym collection of RNA variant scans (doi:10.7554/elife.90254):
The source gives no read counts; variants with many changes may rest on few reads.

B1: LINE1-mini (parent)
chain: GGCAGAGCUCAACACAGCGUGGCAAAGUGGCUGUGGCUAGACUGCC

Variants of: B1
Assay: self-cleavage, relative activity (ratio to wild type); higher = more cleavage; in vitro, sequencing; the parent is a self-cleaving ribozyme
Work on UGCAGAGCUCAACACAGCGUCGCAAAGUGGCUUUGGCUAGACUGCC yielded a self-cleavage of 0.07.
Work on UGCAGAGCUCAACACAGCGUUGCAAAGUGACUGUGGCUAGACUGCC yielded a self-cleavage of 0.57.
Work on UGCAGAGCUCAACACAGCGUGGCAAAAUGGCUGUGGCUCGACUGCC yielded a self-cleavage of 0.04.
UGCAGAGCUCAACACAGCGUGCCAAAGUGGCUGUGGCUAGACUGCG gave a self-cleavage of 0.4.
In the case of UGCAGAGCUCAACACAGCGUGACAAAGUGGCUGUGGCUAGACUGCA, the self-cleavage is reported as 0.52.
UGCAGAGCUCAACACAUGGUGGCAAAGAGGCUGUGGCUAGACUGCC gave a self-cleavage of 0.02.
Variant UGCAGAGCUCAACACAGCUUGGCAAAGCGGCUGUGGCUAGACUGCG has a self-cleavage of 0.07.
For UGCAGAGCUCAACACAGCGUCGCAAAGUGGCUGUGGCUAGACUGCA, the self-cleavage was 0.32.
With UGCAGAGCUCAACACAGCCUGGCAAAGUGGCUGUGGCUAGACUGUC the self-cleavage was 0.29.
UGCAGAGCUCAACACAGCGUCGCAAAGUGGCUGUUGCUAGACUGCC gave a self-cleavage of 0.03.
Work on UGCAGAGCUCAACACAGCGUGUCGAAGUGACUGUGGCUAGACUGCC yielded a self-cleavage of 0.21.
With UGCAGAGCUCAACACAUCGUGGCAAAGUGGCUGUGGCUAGGGUGCC the self-cleavage was 0.
Work on UGCAGAGCUCAACACAUCGUGGCAAAGUUCCUGUGGCUAUACUGCA yielded a self-cleavage of 0.03.
Work on UGCAGAGCUCAACACAGCGUGACUAAGUGGCUGUUGCUAGACUGCC yielded a self-cleavage of 0.07.
Work on UGCAGAGCUCAACACAGCGUUGCAAAGUGGCUGUGGCUAGAAUGCC yielded a self-cleavage of 0.26.
For UGCAGAGCUCAACACAGCGUUGCAAAGUGGCUGUUGCUAGACUGCC, the self-cleavage was 0.06.
Work on UGCAGAGCUCAACACAGCGUGGCAAAAUGACUGUGGCUAGACUGCC yielded a self-cleavage of 0.18.
In the case of UGCAGAGCUCAACACAGCGUCGCAACGUGGCUGUGGCUAGACUACC, the self-cleavage is reported as 0.1.
In the case of UGCAGAGCUCAACACAGCAUGGCAAAGUGGCUGUGGCUAGACUGGU, the self-cleavage is reported as 0.24.
Variant UGCAGAGCUCAACACAGCGUUGCAAAGAGGGUGUGGUUUGACUGCC has a self-cleavage of 0.01.
UGCAGAGCUCAACACAUCGUGACAAAAUGGCUUUGGCUAGACUGCU gave a self-cleavage of 0.08.
UGCAGAGCUCAACACAGCGUUGCAAACUGGCUGGGGCUAGACUGCC gave a self-cleavage of 0.17.
UGCAGAGCUCAACACAGCAUGGCAACGUGGUUGUGGCUAGAUUGCC showed a self-cleavage of 0.04.
Variant UGCAGAGCUCAACACACCGUGGCAAAGUGGCUGUGGCUAGAUUGCC has a self-cleavage of 0.06.
UGCAGAGCUCAACACAGCGUGUCAAAGAGGCUGUGGCUAGACUGCC showed a self-cleavage of 0.28.
UGCAGAGCUCAACACAGCAUGGCAAAGUGGCUGUUGCUAGACAGUA showed a self-cleavage of 0.05.
Work on UGCAGAGCUCAACACAGCUUUGCAAAGUGGCUGUGGCUAGACUGCC yielded a self-cleavage of 0.2.
Variant UGCAGAGCUCAACACACCGUGGCAAAGUGGCUGGGGCUAAACUGUC has a self-cleavage of 0.01.
Work on UGCAGAGCUCAACACAGCGUCGCAAAGUGGCUGUUGCUAUACUGCC yielded a self-cleavage of 0.07.
Work on UGCAGAGCUCAACACAGCGUCGCAAACUUGCUGUGGCUAGUCAGCC yielded a self-cleavage of 0.
Variant UGCAGAGCUCAACACAGCGUCGCAAAGUGGCAUUGCCUAGACUGCC has a self-cleavage of 0.03.
UGCAGAGCUCAACACAGCGUGACAAAGCUGCUGUGGCUAGACUGCC showed a self-cleavage of 0.13.
Variant UGCAGAGCUCAACACAGCGUGACAAAGUUGUUGUUGCUAGACUGCC has a self-cleavage of 0.01.
In the case of UGCAGAGCUCAACACACCGUGGCAAAGUGGCUGUGGCUAGCCUGCC, the self-cleavage is reported as 0.02.
In the case of UGCAGAGCUCAACACACCGUGGCAAAGUGGCUGUGGCUAGUCUGCC, the self-cleavage is reported as 0.04.
UGCAGAGCUCAACACAGCGUGACAAAGUGGCUGUGGCCAGACUGUC gave a self-cleavage of 0.26.
For UGCAGAGCUCAACACAGCGUCGUUAAGUGGCUGUGGCUAGACUGCC, the self-cleavage was 0.56.
Variant UGCAGAGCUCAACACAGCGUUGCAAAGUGGCUGUGGAUAGACUGCC has a self-cleavage of 0.02.
UGCAGAGCUCAACACACCGUGGCAAAGUGGGUGUGGCUAGACUGUC showed a self-cleavage of 0.07.
For UGCAGAGCUCAACACAUCGUGGCAAAUUGUCUGUGGCUAGACUGCC, the self-cleavage was 0.34.
With UGCAGAGCUCAACACAGCGUGACAAAGUGGCGGUGGCUAGACUGCC the self-cleavage was 0.17.
With UGCAGAGCUCAACACAGCGUUGCAAAGUGGCUGUGGCUAGACUUCC the self-cleavage was 0.16.
For UGCAGAGCUCAACACAGCAUGGCAAAUUGGUUGUGGCUAGACUCCC, the self-cleavage was 0.05.
With UGCAGAGCUCAACACAGCUUGGCAAAGUGGCUGUGGCUAUACUGCC the self-cleavage was 0.07.
For UGCAGAGCUCAACACAGCUUGGCAAAGUGGCGGUGGCUAGACUGCC, the self-cleavage was 0.06.
Work on UGCAGAGCUCAACACAUCGUGGCAAAGUGGCUGUUGCUAGACUGCC yielded a self-cleavage of 0.04.
Variant UGCAGAGCUCAACACAUCGUGGCAAAGUGGCUGUGGCUAGACUACC has a self-cleavage of 0.04.
For UGCAGAGCUCAACACAGCGUGUCAAAGUGGGUGUGGCUAGAAUGCC, the self-cleavage was 0.05.
In the case of UGCAGAGCUCAACACAGCCGGGCAAAGUGGAUGUGGCUAGAUUGCC, the self-cleavage is reported as 0.02.
Variant UGCAGAGCUCAACACAGCGUUGCAAAGUGGCUAUGGCUAGACUGCC has a self-cleavage of 0.02.
For UGCAGAGCUCAACACAGCGUAGCAAAGUGGCUGUGGCUAGAGUGUC, the self-cleavage was 0.05.
For UGCAGAGCUCAACACAGCUUGGCAAAGUGGCUUUGGCUAGACUGCC, the self-cleavage was 0.02.
Variant UGCAGAGCUCAACACAGCGUGCCAACGUGGCUGUGCCUAGUCUGCC has a self-cleavage of 0.03.
Work on UGCAGAGCUCAACACAGCGUGACAAAGUGGCUGUGGCUAGCAUGGC yielded a self-cleavage of 0.04.
Work on UGCAGAGCUCAACACAUCCUGGCAAAGUGGCUGUGGCUAGACUGCC yielded a self-cleavage of 0.57.
Variant UGCAGAGCUCAACACAGCAUGGCAAAGGGGUUGUGGCUAGACUGCC has a self-cleavage of 0.13.
